The values below come from PubChem BioAssay AID1159614 (National Center for Advancing Translational Sciences (NCATS), 2016).

Structures are written as SMILES. Among all 45,000 compounds or so, about 65 (0.1%) were called active. Calls come from the whole dose curve; as a rule, active = well fitted activation curve with a large enough effect; inconclusive = small, poorly fitted or top-dose-only effect; inactive = no such curve, though single readings can be large or run the other way. The list shows a part of the results.

Sequence of UniProt P54803 (P54803 whole entry, looked up): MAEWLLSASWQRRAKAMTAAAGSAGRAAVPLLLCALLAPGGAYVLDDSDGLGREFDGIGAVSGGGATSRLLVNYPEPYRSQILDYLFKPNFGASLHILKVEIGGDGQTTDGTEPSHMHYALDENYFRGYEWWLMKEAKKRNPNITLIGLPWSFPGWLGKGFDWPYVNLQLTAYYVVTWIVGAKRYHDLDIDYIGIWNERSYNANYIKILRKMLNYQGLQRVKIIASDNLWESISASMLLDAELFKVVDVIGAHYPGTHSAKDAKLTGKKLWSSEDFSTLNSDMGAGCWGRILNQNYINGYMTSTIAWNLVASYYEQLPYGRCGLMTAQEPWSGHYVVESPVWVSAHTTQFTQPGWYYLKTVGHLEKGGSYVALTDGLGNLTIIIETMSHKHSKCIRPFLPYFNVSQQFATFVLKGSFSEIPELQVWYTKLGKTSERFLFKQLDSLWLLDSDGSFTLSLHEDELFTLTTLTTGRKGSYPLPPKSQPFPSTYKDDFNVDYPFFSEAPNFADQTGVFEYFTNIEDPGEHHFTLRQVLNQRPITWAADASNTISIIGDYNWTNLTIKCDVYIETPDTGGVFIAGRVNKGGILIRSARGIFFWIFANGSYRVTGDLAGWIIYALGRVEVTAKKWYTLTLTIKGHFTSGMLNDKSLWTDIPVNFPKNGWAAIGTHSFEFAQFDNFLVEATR

The target of the experiment is Galactocerebrosidase (Homo sapiens) (UniProt P54803). Description: A Novel Cell-Based Assay to Identify Small Molecules for B -Galactocerebrosidase. Note: 0% is about no effect; nearly all actives have a fitted effect of over 65% in size. Particulars: 145M-Twi-hGALC-G270D cells (Twitcher mouse brain line with human GALC G270D), HMU-beta-Gal fluorescence, 48 h; series mostly up to 57.5 µM; activation: at the top concentration. An outline of the steps:
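Fluorescence readout: HMU-β-gal cleavage by mutant GALC (0.1 mM final, citrate/phosphate pH 5.2 with 1 mg/mL taurocholate), stopped with carbonate/bicarbonate plus Triton X-100. Cells: murine Twitcher 145M-Twi expressing human G270D GALC; qHTS for activators.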
Consider `Cc1ccc(CNC(=O)Cc2coc3cc(C)cc(C)c23)cc1`, for which the “activation” value is inactive: -14.8%.

In the case of `COc1ccc(-c2cn3nc(N4CCC(C(=O)Nc5cccc(Cl)c5)CC4)sc3n2)cc1`, the “activation” value is inactive: -10.6%.

As for `COc1cc(CN(CC2CCCO2)C(=O)c2ccc(F)cc2)cc(OC)c1OC` (stereo not drawn), the “activation” value is inactive: -4.69%.

With `CC(=O)N1CCCc2cc(S(=O)(=O)N3CCC(C(=O)NCc4ccc(N(C)C)cc4)CC3)ccc21`, the “activation” value was inactive: -20.2%.

For `CCCNC(=O)c1ccc(-n2c(-c3ccccc3)cc3c2CCCCC3)cc1`, the “activation” value is inactive: -0.368%.

Take `COc1ccc(CNC(=O)CCC(=O)N2CC3CCCN3c3ccccc32)cc1` (stereo not drawn): the “activation” value was inactive: -12.8%.

`COc1ccccc1CNC(=O)c1ccc(CS(=O)(=O)c2ccccc2C)o1`: the “activation” value is inactive: -8.36%.

`O=C(NCc1ccccc1)c1ccc(NC(=O)c2nsc3ccccc23)cc1`: the “activation” value is inactive: -8.7%.

Consider `CCOC(=O)c1ccc(NC(=O)C2CCCN(c3ccc(Sc4ccc(C)cc4)nn3)C2)cc1` (stereo not drawn), for which the “activation” value is inactive: 1.78%.

With `Cc1cc(Br)ccc1NC(=O)CCS(=O)(=O)c1cccc2nsnc12`, the “activation” value was inactive: -6.94%.

Take `CC(=O)NCCNc1nc2c(S(=O)(=O)c3ccc(C)c(C)c3)nnn2c2ccc(Cl)cc12`: the “activation” value was inactive: 24%.

Regarding `CCN(C(=O)CN(C)S(=O)(=O)c1ccc2c(c1)c(=O)n(C)c(=O)n2C)c1ccc(OC)cc1`, the “activation” value was inactive: -41.5%.

Take `COC(=O)c1ccc(-n2nnc(-c3nc(-c4ccc5c(c4)OCO5)no3)c2C)cc1`: the “activation” value is inactive: -25%.

As to `CC(C)c1nc2ccc(C(=O)NCCCN3CCN(c4ccccc4F)CC3)cc2o1`, the “activation” value is inactive: -8.23%.

`Cn1c(=NC(=O)c2ccc3c(c2)OCCO3)sc2cc(S(C)(=O)=O)ccc21`: the “activation” value is inactive: -15.6%.

Consider `COc1ccccc1CNC(=O)C(CC(C)C)NS(=O)(=O)c1ccc2c(c1)oc(=O)n2C` (stereo not drawn), for which the “activation” value was inactive: 2.78%.

On to `Cc1ccccc1-c1noc(C(C)NC(=O)c2ccco2)n1` (stereo not drawn), for which the “activation” value was inactive: -8.11%.

As to `CCC(=O)N1CCc2cc(S(=O)(=O)NCCC(=O)NCc3ccccc3Cl)ccc21`, the “activation” value was inactive: -3.27%.

On to `Cc1ccc(C(C)C)c(OCC(=O)Nc2ccc(S(=O)(=O)Nc3onc(C)c3C)cc2)c1`, for which the “activation” value was inactive: -3.57%.

Turning to `CCOc1ccc2nc(NC(=O)CS(=O)(=O)c3ccc(Cl)cc3)sc2c1`, the “activation” value was inactive: -16.9%.

Turning to `Cc1ccc(C2c3c(oc4ccccc4c3=O)C(=O)N2c2ccc(C)cn2)cc1` (stereo not drawn), the “activation” value is inactive: -0.799%.

As to `N#Cc1ccc(CN2C(=O)c3ccccc3Sc3ccc(C(=O)OCc4ccco4)cc32)cc1`, the “activation” value was inactive: -3%.

For `Cn1c(=O)nc2n(-c3ccc(Cl)c(Cl)c3)c3cc(Cl)ccc3cc-2c1=O`, the “activation” value was inactive: -2.25%.

As for `CCCCNC(=O)NS(=O)(=O)c1ccc(C)cc1`, the “activation” value was inactive: -10%.

Consider `O=C(Nc1c(C(=O)Nc2ccc(F)cc2)oc2ccccc12)c1ccccc1F`, for which the “activation” value is inactive: -3.08%.

Take `Cc1ccc(C)c(NC(=O)CN2C(=O)COc3ccc(Cl)cc32)c1`: the “activation” value was inactive: -0.469%.

Take `Cc1cc(O)cc2c1O[C@](C)(CCC[C@H](C)CCC[C@H](C)CCCC(C)C)CC2`: the “activation” value is inactive: -7.24%.

`COc1ccccc1CNC(=O)C1CCCN(c2nnc(-n3c(C)ccc3C)s2)C1` (stereo not drawn): the “activation” value was inactive: -10.1%.

For `CC1=C(C(=O)OCC2CCCCC2)C(c2ccccc2F)CC(=O)N1` (stereo not drawn), the “activation” value is inactive: -9.11%.

Regarding `Cc1ccc(C(C)C)c(OCC(=O)N2CCC(c3nc4ccccc4o3)CC2)c1`, the “activation” value is inactive: -5.02%.

For the molecule `COc1ccc(C(=O)N(Cc2ccc(C(C)C)cc2)C2CCS(=O)(=O)C2)cc1` (stereo not drawn), the “activation” value was inactive: -11.5%.

Regarding `Cc1ccccc1CNS(=O)(=O)c1csc(C(N)=O)c1`, the “activation” value is inactive: -15.7%.

In the case of `Cc1nc2nc(SCC(=O)NCCc3ccccc3)nn2c(C)c1Cc1c(F)cccc1Cl`, the “activation” value is inactive: -6.38%.

Regarding `Cc1nn(-c2ccc(N3CCOCC3)nn2)c(C)c1CCC(=O)NCc1ccc(OC(C)C)cc1`, the “activation” value is inactive: -11.6%.

As for `Cc1c(C2=CCN(S(=O)(=O)c3ccc(CC(C)C)cc3)CC2)c2ccccc2n1CC(=O)N1CCCC1`, the “activation” value was inactive: 8.53%.

Regarding `CCn1c(SCCOc2ccccc2F)nc2ccccc21`, the “activation” value is inactive: -12.9%.

As to `CCOc1ccccc1C(=O)Nc1ccc2c(c1)N(C)C(=O)c1ccccc1S2`, the “activation” value is inactive: 0.5%.

Turning to `Cc1cccc(N(C)S(=O)(=O)c2cc3c(cc2Cl)NC(=O)CO3)c1`, the “activation” value is inactive: -14.5%.

For the molecule `Cc1nn2c(=O)cc(COC(=O)c3cccc(NC(=O)c4cccs4)c3)nc2s1`, the “activation” value is inactive: -8.81%.

Turning to `CCOc1ccc(NS(=O)(=O)c2ccc3[nH]c4c(c3c2)CCCC4)cc1`, the “activation” value is inactive: -9.94%.

`Cc1c(Cl)cccc1NC(=O)CSc1nc(=O)n(Cc2ccccn2)c2c1CCC2`: the “activation” value was inactive: -13.3%.

For the molecule `CCCSc1ncc(Cl)c(C(=O)Nc2sc3c(c2C(=O)NCCOC)CCCC3)n1`, the “activation” value was inactive: 1.52%.

On to `Cc1ccc(CNS(=O)(=O)c2ccc3c(c2)CCN3S(C)(=O)=O)cc1`, for which the “activation” value was inactive: -10.7%.

`COc1ccc2nc(N(Cc3cccnc3)C(=O)c3ccc4c(c3)OCCO4)sc2c1`: the “activation” value was inactive: -13.6%.

As to `COc1ccc(N(CC(=O)N2CCN(c3cccc(C)c3C)CC2)S(=O)(=O)c2c(C)noc2C)cc1`, the “activation” value was inactive: -0.0218%.

In the case of `COc1ccc(-c2cn3nc(N4CCC(C(=O)Nc5cccc(C)c5C)CC4)sc3n2)cc1`, the “activation” value was inactive: 1.82%.

Turning to `O=C(COc1ccccc1Cl)Nc1ccc2oc(-c3ccccc3F)nc2c1`, the “activation” value is inactive: -7.87%.

Consider `COCCNC(=O)CCCn1c(=O)c2cc(OC)c(OC)cc2n(CC(=O)Nc2ccc(F)cc2)c1=O`, for which the “activation” value was inactive: -4.58%.
